Paper PMC4336329 (PLoS ONE, 2015)
Hit rate of the full screen: of about 310,000 compounds, about 2,200 (0.71%) showed an effect of 50% or more. The effect is printed as a negative number. The list shows a part of the results.

Target: human ether-à-go-go-related gene (hERG) potassium channel (human, UniProt Q12809)
Experiment: primary screen, population patch clamp on CHO cells stably expressing hERG

human ether-à-go-go-related gene (hERG) potassium channel, sequence (Q12809 whole entry, looked up): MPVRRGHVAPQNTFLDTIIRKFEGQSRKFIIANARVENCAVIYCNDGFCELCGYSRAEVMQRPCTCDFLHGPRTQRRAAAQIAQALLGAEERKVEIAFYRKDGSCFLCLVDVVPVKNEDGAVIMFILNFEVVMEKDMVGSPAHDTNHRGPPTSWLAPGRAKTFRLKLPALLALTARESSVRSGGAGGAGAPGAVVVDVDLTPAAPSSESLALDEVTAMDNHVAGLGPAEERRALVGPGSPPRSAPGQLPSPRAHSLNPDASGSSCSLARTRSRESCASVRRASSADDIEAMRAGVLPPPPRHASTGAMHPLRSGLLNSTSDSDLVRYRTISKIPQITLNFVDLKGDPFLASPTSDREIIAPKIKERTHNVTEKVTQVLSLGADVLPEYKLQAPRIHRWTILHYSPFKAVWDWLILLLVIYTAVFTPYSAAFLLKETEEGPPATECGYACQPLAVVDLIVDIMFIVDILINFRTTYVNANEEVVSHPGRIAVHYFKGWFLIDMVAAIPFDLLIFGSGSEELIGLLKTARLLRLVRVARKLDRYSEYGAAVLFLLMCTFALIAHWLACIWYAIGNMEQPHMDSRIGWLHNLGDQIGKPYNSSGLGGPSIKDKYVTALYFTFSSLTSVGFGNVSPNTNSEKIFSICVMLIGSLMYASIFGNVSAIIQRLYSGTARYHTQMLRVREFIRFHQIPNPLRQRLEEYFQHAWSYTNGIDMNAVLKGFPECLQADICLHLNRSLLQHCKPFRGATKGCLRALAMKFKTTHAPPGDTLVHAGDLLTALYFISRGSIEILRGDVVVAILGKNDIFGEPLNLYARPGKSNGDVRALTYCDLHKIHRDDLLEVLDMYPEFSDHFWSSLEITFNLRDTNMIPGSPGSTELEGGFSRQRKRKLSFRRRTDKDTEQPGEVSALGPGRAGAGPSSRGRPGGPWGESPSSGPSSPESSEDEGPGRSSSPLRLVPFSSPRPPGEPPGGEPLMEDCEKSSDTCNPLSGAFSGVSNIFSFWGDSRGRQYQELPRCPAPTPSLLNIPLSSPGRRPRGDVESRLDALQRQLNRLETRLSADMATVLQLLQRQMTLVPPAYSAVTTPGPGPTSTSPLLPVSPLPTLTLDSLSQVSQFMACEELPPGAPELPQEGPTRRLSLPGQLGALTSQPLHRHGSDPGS

| Structure (SMILES) | hERG current change (%, negative = inhibition) at 1uM [%] |
| --- | --- |
| CS(=O)(=O)N1CCc2cc(-c3csc(NC(=O)Cc4cccs4)n3)ccc21 | -5 |
| C/C(Cl)=C\Cn1c(NCCc2ccccc2)nc2c1c(=O)n(C)c(=O)n2C | -5.76 |
| CCOc1c(C)cc2[nH]c(CCC(=O)O)nc2c1C.Cl | 5.57 |
| C=CCn1c(CCNC(=O)c2ccccc2F)nnc1SCC(=O)Nc1ccc(OC)cc1 | 3.27 |
| O=C(Cn1c(=O)[nH]c2ccccc2c1=O)N1CCN(Cc2ccc3c(c2)OCO3)CC1 | 24.7 |
| O=C(CSc1ccc(C(F)(F)F)cc1[N+](=O)[O-])NCCOc1ccccc1 | 8.53 |
| O=C(CSc1nc2cc([N+](=O)[O-])ccc2n1-c1ccccc1)NCc1ccc2c(c1)OCO2 | 6.1 |
| CCc1ccc(NC(=O)[C@H](C)NC(=O)C2CCN(C(=O)[C@@H](N)C(C)C)CC2)cc1.Cl | -0.189 |
| COc1ccc(N2CCN(C(=O)c3ccc(NC(=O)C4=CSCCO4)cc3)CC2)cc1 | -0.662 |
| CC(C)(C)c1ccc(C2CC2C(=O)N/N=C\c2ccc[nH]2)cc1 (stereo not shown) | 11 |
| CC(C)CCNC(=O)Cn1c2c(c(-c3ccccc3Cl)cc1=O)CCC2 | 5.79 |
| COc1ccccc1N1C(=O)CC(Sc2nccc(C)n2)C1=O (stereo not shown) | 11.1 |
| CCOc1ccc(C(=O)C(C)OC(=O)c2cnc(C)cn2)cc1 (stereo not shown) | 3.56 |
| COc1cc(C(=O)Nc2cc(C(F)(F)F)ccc2-n2cncn2)cc(OC)c1OC | 0.897 |
| Cc1ccc(C(=O)N/N=C\c2ccc[nH]2)cn1 | 19 |
| O=C1C2(CCC13COC(c1ccc(O)cc1)OC3)COC(c1ccc(O)cc1)OC2 (stereo not shown) | 1.55 |
| CN=C(Nc1ccc2c(c1)OCO2)SC1CC(=O)N(c2ccccc2)C1=O (stereo not shown) | -9.59 |
| c1csc(CNc2ncnc3ccc(-c4ccc5c(c4)OCO5)cc23)c1 | 17.4 |
| CC(C)c1ccc(C2/C(=C(/O)c3ccc(F)cc3)C(=O)C(=O)N2CCCN2CCOCC2)cc1 (stereo not shown) | 11.7 |
| COc1ccc2c(ccc[n+]2CC(=O)c2ccccc2)c1.[Br-] | 11.3 |
| O=C1CC2(CCN(C(=O)c3cccc([N+](=O)[O-])c3)CC2)Oc2ccccc21 | -66.7 |
| COc1ccc(CCNC(=O)Cc2ccc3c(c2)OCO3)cc1OC | 9.98 |
| O=C(CSc1nnc(Nc2ccccc2)s1)Nc1ccc(S(=O)(=O)N2CCOCC2)cc1 | 8.65 |
| O=C(NC1=NN(c2ccccc2)CC1)Nc1ccccc1F | 7.23 |
| Cc1ccsc1C(=O)N1CCCC(C(=O)c2cc(F)ccc2F)C1 (stereo not shown) | 9.07 |
| CCCC(=O)Nc1nnc(CCN2CCCCC2)s1 | -2.16 |
| O=C(O)CCC(=O)N1CCOc2ccc(Cl)cc21 | 7.02 |
| Cc1ccc(C)c(OC2=NS(=O)(=O)c3ccccc32)c1 | 16.1 |

| Structure (SMILES) | hERG current change (%, negative = inhibition) at 1uM [%] |
| --- | --- |
| COc1ccc(NC(=O)C(=O)N/N=C(\C)CC(=O)Nc2cc(C)ccn2)c(OC)c1 | 10.7 |
| CCC(=O)Oc1ccc(C(=O)Nc2ccccc2C(=O)NCC(C)C)cc1 | 11 |
| CCc1nc(SCc2ccccn2)[nH]c(=O)c1C | 9.33 |
| CCOCCc1nnc(NC(=O)CSc2ccccc2)s1 | -16.5 |
| CCN(c1ccc(NC(=O)CSc2nnc3nc(C)cc(C)n23)cc1)C(C)C | 17.9 |
| Cc1cc2nnc(SCC(=O)OC(C)C)n2c2ccccc12 | 4.81 |
| COc1cccc(C(=O)NC2CCCC2)c1 | 2.56 |
| COc1ccc(CC(NC(C)=O)C(=O)NC2CCN(S(=O)(=O)c3ccc(NC(C)=O)cc3)CC2)c(OC)c1 (stereo not shown) | 9.13 |
| CCn1cc(CNC(=O)c2cc(Cl)ccc2OC)c(C)n1 | 19 |
| O=C(COC(=O)c1cccc(O)c1)Nc1ccc(N2CCOCC2)cc1 | -1.32 |
| CC1Cc2ccccc2N1CC(=O)NC(=O)NCc1ccccc1 (stereo not shown) | 6.13 |
| O=C(NCCN1CCN(S(=O)(=O)c2ccc(F)cc2)CC1)C(=O)NCc1ccccc1 | 9.7 |
| CCOc1ccc(CCNC(=O)CCc2c(C)nc3ncnn3c2C)cc1OCC | -13.1 |
| COc1ccc(C2=NN(c3nc(-c4ccc(CNC(C)=O)cc4)cs3)C(c3ccco3)C2)cc1 (stereo not shown) | 15.6 |
| CCc1ccccc1Nc1nc(N)nc(COC(=O)c2cccn2C)n1 | -5.36 |
| COc1ccc(N2CCN(C3CCCN(C(=O)CN4CCCC4=O)C3)CC2)cc1 (stereo not shown) | 14.3 |
| CN1CCN(c2nc3c(c(=O)[nH]c(=O)n3C)n2Cc2cccc(Br)c2)CC1 | -6.41 |
| Cc1cc2c(=O)n(C)c(SCC(=O)Nc3cccc(F)c3)nc2s1 | 10.3 |
| Cc1nc(SCC(=O)N2CCc3ccccc3C2)c2c(C)c(C)sc2n1 | 1.44 |
| O=C(Nc1ccc(F)c(F)c1)c1ccc2c(c1)OCO2 | 7.43 |
| O=C(COC(=O)CNC(=O)c1ccc([N+](=O)[O-])o1)Nc1ncc(C(F)(F)F)cc1Cl | -19 |
| COC(=O)c1cc([N+](=O)[O-])c(-n2ccnc2)c([N+](=O)[O-])c1 | 15.4 |
| Cc1cccc2cc(CN(Cc3ccco3)C(=O)Nc3cccc(C#N)c3)c(Cl)nc12 | 15.2 |
| O=C(O)C1CCCCC1C(=O)Nc1nc(-c2ccc(Cl)s2)cs1 (stereo not shown) | 8.95 |
| FC(F)(F)c1nnc(-c2ccccc2)nc1N1CCOCC1 | 4.84 |
| CCOC(=O)CCCCCN1C(=O)c2cccc3cccc(c23)C1=O | 12.6 |
| COc1cccc(-c2nc(CS(=O)(=O)CC(=O)Nc3ccc(F)cc3F)c(C)o2)c1 | 33.6 |
